Laboratory results as given in PubChem BioAssay AID1347120 (National Center for Advancing Translational Sciences (NCATS), 2019).
Screen size: about 390,000 compounds; about 930 (0.24%) were called active. Inconclusive means that the source gave no clear call. Such entries were picked first, then a sample of the others. The call rests on the fitted dose curve; in most records, active means well fitted activation curve with a large enough effect; inconclusive means small, poorly fitted or top-dose-only effect; inactive means no such curve, though single readings can be large or run the other way. A potency beside an inconclusive call is a rough fit, not a confirmed value.

Experiment: qHTS for Suppressors of FUS Proteinopathy: Primary screen using FUS-linked yeast assay; further: nearly all actives have a fitted effect of over 55% in size;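 on growth rescue (activation): plate controls were DMSO vehicle for no effect and reference control for full effect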
Conditions: S. cerevisiae FUS-expressing, OD600, 24 h; Potency: growth rescue; growth rescue (activation): at 76.6 µM (top of the series)
In short: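 Compound concentration series was pinned onto galactose-induced FUS-expressing yeast seeded at OD 0.005. Plates sat 24hr at 30C; absorbance at 600 nm gave growth. DMSO served as background control.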
Potency means the concentration at half of the fitted maximal effect; tags describe the fitted curve by direction and shape.

Q: For `O=C1OCCN1C(=O)[C@H]1[C@H](c2ccc([N+](=O)[O-])cc2)C(c2cccc(Cl)c2)=NN1c1ccccc1`, which Potency is on record?
A: Its Potency is inconclusive: 11.2 µM [activator, partial curve].

Q: For `Cc1cc(=O)oc2c3c(cc(OCC(=O)Nc4ccc(CCO)cc4)c12)OC(C)(C)CC3`, which Potency is on record?
A: The Potency was inconclusive: 31.6 µM [activator, single point].

Q: Which Potency does the source give for `Cn1cccc1C1Nc2ccccc2NC2=C1C(=O)CC(C)(C)C2` (stereo not given) here?
A: Its Potency is inconclusive: 28.2 µM [activator, single point].

Q: For `Nc1nnc(SCC(=O)Nc2sc3c(c2C(=O)c2ccccc2)CCCC3)s1`, which Potency is on record?
A: Its Potency is inconclusive: 11.2 µM [activator, partial curve, poor fit].

Q: For `CCC1Nc2ncnc(N3CCN(c4ccccc4)CC3)c2N(Cc2ccc(C)cc2)C1=O` (stereo not given), which Potency is on record?
A: The Potency was inconclusive: 25.1 µM [activator, partial curve].

Q: Which “growth rescue (activation)” value does the source give for `CCn1c(/C=C2/C(=O)N(C)c3ccccc32)nc2ccccc2c1=O` here?
A: The value was inactive: -2.35%.

Q: For `COC(=O)[C@H](C)N(CCc1cn(Cc2ccccc2)nn1)S(=O)(=O)c1ccccc1Br`, which “growth rescue (activation)” value is on record?
A: Its value is inactive: 44.3%.

Q: For `O=C1[C@H]2[C@@H](c3ccc(C(F)(F)F)cc3)N[C@]3(CCCN(CC4CCCCC4)C3=O)[C@H]2C(=O)N1Cc1ccccc1`, which Potency is on record?
A: The Potency was inconclusive: 17.8 µM [activator, partial curve].

Q: Which “growth rescue (activation)” value does the source give for `COC(CNC(=O)c1cnn2c(C)c(Cc3ccccc3)c(C)nc12)OC` here?
A: Its value is inactive: 24.4%.

Q: With `CCN(CC)S(=O)(=O)c1ccc(Cl)c(NC(=O)COC(=O)c2c(C)noc2C)c1` as the compound, how does the “growth rescue (activation)” value read?
A: The value was inactive: -3.76%.

Q: For `O=C(Cc1cc(=O)[nH][nH]1)N/N=C/c1ccccc1Cl`, which Potency is on record?
A: The Potency was inconclusive: 44.7 µM [activator, single point].

Q: Which Potency does the source give for `CCC[C@H]1[C@@H](NS(=O)(=O)c2ccccc2[N+](=O)[O-])CC[C@@]23CCCN2C(=O)CCC[C@@H]13` here?
A: The Potency was inconclusive: 20 µM [activator, single point].

Q: With `CCc1ccc(CN(Cc2cccnc2)C(=O)/C=C/c2ccc(OC)cc2)cc1` as the compound, how does the Potency read?
A: The Potency was inconclusive: 20 µM [activator, partial curve, poor fit].

Q: With `COc1ccc(NC(=O)c2cccc(S(=O)(=O)N3CCc4ccccc43)c2)c(OC)c1` as the compound, how does the Potency read?
A: Its Potency is inconclusive: 31.6 µM [activator, single point].

Q: For `COc1ccc(/C=N/NC(=O)CSc2nnc(C)n2-c2ccccc2)c(OC)c1OC`, which Potency is on record?
A: The Potency was inconclusive: 11.2 µM [activator, single point].

Q: For `CCCOC(=O)c1cccc(Nc2nc(CCC)cc(=O)[nH]2)c1`, which Potency is on record?
A: The Potency was inconclusive: 50.1 µM [activator, single point].

Q: With `CCOC(=O)[C@@H]1[C@H]2COc3cc(OC)ccc3[C@@H]2N2C(=O)N(c3ccc(Cl)cc3)C(=O)[C@]12C` as the compound, how does the Potency read?
A: Its Potency is active: 28.2 µM.

Q: With `COC(=O)[C@]12C[C@H](CC(=O)NCc3ccc(OC)c(OC)c3)C(=O)N(Cc3ccc(Cl)cc3Cl)C1=C[C@H](C(C)(C)C)O[C@@H]2C` as the compound, how does the Potency read?
A: The Potency was inconclusive: 25.1 µM [activator, single point].

Q: With `CCOC(=O)Cn1c(=N)n(Cc2ccc(C(C)(C)C)cc2)c2ccccc21` as the compound, how does the Potency read?
A: The Potency was inconclusive: 28.2 µM [activator, single point].

Q: With `C=CCn1c(Cc2ccc(OC)cc2)nnc1SCC(=O)c1cccc([N+](=O)[O-])c1` as the compound, how does the Potency read?
A: The Potency was inconclusive: 2.82 µM [activator, full curve].

Q: With `C=C(C)CSc1nc2sc3c(c2c(=O)n1Cc1ccccc1)CC(C)(CC)OC3` (stereo not given) as the compound, how does the “growth rescue (activation)” value read?
A: Its value is inactive: 11.7%.

Q: With `Cc1ccc(-c2cn3cccnc3n2)cc1NC(=O)C(C)(C)Oc1ccc(Cl)cc1` as the compound, how does the Potency read?
A: The Potency was inconclusive: 50.1 µM [activator, single point].

Q: With `CCc1c(O)nc(SCC(=O)Nc2ccccc2OC)n(-c2ccccc2C)c1=O` as the compound, how does the Potency read?
A: The Potency was inconclusive: 50.1 µM [activator, single point].

Q: Which “growth rescue (activation)” value does the source give for `CCC(C)NC(=O)CN1C(=O)c2cccnc2Sc2ccccc21` (stereo not given) here?
A: Its value is inactive: 24.3%.

Q: With `COc1cccc(NCc2cccn2-c2nnc(N3CCC(C)CC3)s2)c1` as the compound, how does the Potency read?
A: Its Potency is inconclusive: 39.8 µM [activator, partial curve, poor fit].

Q: With `Cc1cccc(-c2nn(-c3ccccc3)cc2C(=O)Nc2cccc(S(=O)(=O)NC3=NCCC3)c2)c1` as the compound, how does the Potency read?
A: The Potency was inconclusive: 35.5 µM [activator, partial curve, poor fit].

Q: With `CCCCCN(C(=O)CCC(=O)OCCOc1ccccc1Cl)c1c(N)n(CCCC)c(=O)[nH]c1=O` as the compound, how does the Potency read?
A: The Potency was inconclusive: 31.6 µM [activator, partial curve, poor fit].

Q: For `CC(=O)Nc1cccc(C(=O)OCC(=O)NC(=O)Cc2ccccc2)c1`, which “growth rescue (activation)” value is on record?
A: The value was inactive: -5.83%.

Q: For `COc1ccc(-n2c(Cc3cccn3C)nnc2SCC(=O)Nc2cccc(NC(C)=O)c2)cc1`, which Potency is on record?
A: The Potency was inconclusive: 22.4 µM [activator, partial curve, poor fit].

Q: For `Cc1ccccc1NC(=O)Cn1c(=O)n(CCCC(=O)NCc2ccc3c(c2)OCO3)c(=O)c2ccccc21`, which “growth rescue (activation)” value is on record?
A: Its value is inactive: 8.05%.

Q: With `Cc1ccccc1Cn1nc(C)c(NC(=O)c2sc3ccccc3c2Cl)c1C` as the compound, how does the “growth rescue (activation)” value read?
A: The value was inactive: 42.7%.

Q: For `COc1cccc2c(=O)cc(C)n(CC(=O)Nc3ccc(C)c(C)c3)c12`, which “growth rescue (activation)” value is on record?
A: The value was inactive: -13.8%.

Q: With `Cc1ccc(C)c(Cn2nnc3c(=O)[nH]c(C4CCN(S(=O)(=O)c5ccc(S(=O)(=O)NC6CC6)cc5)CC4)nc32)c1` as the compound, how does the Potency read?
A: Its Potency is inconclusive: 25.1 µM [activator, partial curve, poor fit].

Q: Which Potency does the source give for `Cc1noc(C)c1S(=O)(=O)N(C)C[C@H]1Oc2c(NC(=O)Nc3ccc4c(c3)OCO4)cccc2C(=O)N([C@H](C)CO)C[C@@H]1C` here?
A: The Potency was inconclusive: 50.1 µM [activator, single point].

Q: For `COC(=O)c1ccc([C@@H]2Nc3c(OC)ccc(C)c3[C@@H]3C=CC[C@@H]32)cc1`, which Potency is on record?
A: Its Potency is inconclusive: 50.1 µM [activator, single point].

Q: With `CC(O)CNc1nc2c(c(=O)n(C)c(=O)n2C)n1C/C=C/c1ccccc1` (stereo not given) as the compound, how does the “growth rescue (activation)” value read?
A: The value was inactive: 3.18%.

Q: Which “growth rescue (activation)” value does the source give for `O=C(Nc1ccccn1)c1ccc(COc2ccccc2Cl)o1` here?
A: Its value is inactive: 25%.

Q: With `COC(=O)c1ccc(C(=O)OC)c(NC(=O)COC(=O)C2CCCCC2)c1` as the compound, how does the “growth rescue (activation)” value read?
A: Its value is inactive: 18.3%.

Q: With `O=C(O)c1ccc(/C=C/C(=O)c2ccc3c(c2)OCCCO3)cc1` as the compound, how does the “growth rescue (activation)” value read?
A: Its value is inactive: -4.2%.

Q: With `Clc1ccc(C2=CC(c3ccco3)n3ncnc3N2)cc1` (stereo not given) as the compound, how does the “growth rescue (activation)” value read?
A: Its value is inactive: 40.7%.
